Laboratory results taken from the RNAGym collection of RNA variant scans (doi:10.1093/nar/gkz1192).
The source gives no read counts; variants with many changes may rest on few reads.

B1: CPEB3 Ribozyme (parent)
chain: UAACAGGGGGCCACAGCAGAAGCGUUCACGUCGCAGCCCCUGUCAGAUUCUGGUGAAUCUGCGAAUUCUGCUGUAUAUCUC

Variants of: B1
Experiment: self-cleavage, relative activity (ratio to wild type); higher = more cleavage; in vitro, sequencing
Method in brief: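 For each CPEB3 ribozyme variant, relative activity is its cleaved/total read fraction divided by the unmutated ribozyme's. Barcoded error-prone PCR libraries were transcribed by T7 RNA polymerase (5 hours, 37°C) and held in DNase I for 15 min before an EDTA stop, with cleavage occurring throughout. Template-switching reverse transcription and Illumina sequencing were used to read the RNAs. A 5-read minimum applied, and results are the mean of three batches.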

Variant	self-cleavage
UAACAGGGGGCCACAGCAGAAGCGUUCACGCCGCAGCCCCUGUCAGAUUCUGGUGAAUCUGCGAAUUCUGCUGUACAUCCC	1.08
UAACAGGGGGCCACAGCAGAAGCGUUCACGUGGCAGCCCCUGUCUGAUUCUGGUGAGUCUGCGAAUUCUGCUGUAUAUCUC	0.15
UAACAGGGGGCCACAGCAGAAGCGUUCACGGCGCAGCCCCUGUCAGAUUCUGGUGAACCUGCGAAUUCUGCUGUAUGUCUC	0.17
UAACAGGGGGCCACAGCAGAAGCGUUCACGUUGCAGCCCCUGUCAGAUUCUGGUGAAUCUGCGAUUGCUGCUGUAUAUCUC	0.22
UAACAGGGGGCCACAGCAGAAGCGUUCACGGCGCUGCCCCUGUCAGACUCUGGUGGAUCUGCGUAUUCUGCUGUAUAUCUC	0.06
UAACAGGGGGCCACAGCAGAAGCGUUCACGGCGCAGCACCUGUCAGAUUCUGGUGAAUCUGCAGAUUGUGCUGCAUAUCUC	0.04
UAACAGGGGGCCACAGCAGAAGCGUUCACGCCGCAGCCCCUGGCAGAUUCUGGUGAAUCUGCGAAUUCUGCUGAAUAUCUC	0.13
UAACAGGGGGCCACAGCAGAAGCGUUCACGGCACUGCCCCUGUCAGAUUCUGGUGAAUCUGCGUAUUCUGCUGUAUAUCUC	0.09
UAACAGGGGGCCACAGCAGAAGCGUUCACGCCGCAGCCCCUGUCAGAUUCUGGUGAACCUGCGAAUUCUGCAGUAUAUCUC	0.18
UAACAGGGGGCCACAGCAGAAGCGUUCACGUAGCAGUCCUUGUCAGAUUCUGGUGAAUCUGCGUAUUCUGCUGUAUAUCUC	0.13
UAACAGGGGGCCACAGCAGAAGCGUUCACGGCGAAGCCCCUGUCAGAUUCUGGUGAACCUGCGAACUCUGCUGAAUAUCUC	0.06
UAACAGGGGGCCACAGCAGAAGCGUUCACGCCGCAGCCCCUGCCAGAUUCUGGUGAAUCAGCGAAUUCUGCUGUAUAUCUC	0.2
UAACAGGGGGCCACAGCAGAAGCGUUCACGUAGCAGCCCCUGUCGGAUUCUGGUGAAUCUGCGAAUUCCGCUGUAUAUCUC	0.13
UAACAGGGGGCCACAGCAGAAGCGUUCACGGCGCAGCCCCUGUCAGAUUCUGGUGAACCUGCGAAUUCUGCAGUAUAUCUC	0.15
UAACAGGGGGCCACAGCAGAAGCGUUCACGGCGCAGCCCCUGUCAGAUUCUGUAGGAUCUACGAAAUCUGCUCUAUAUCUC	0.11
UAACAGGGGGCCACAGCAGAAGCGUUCACGGCGCAGCCCCCGUCAGAUUCUGGUGAAUCAGCGAAUUCUCCUGUAUAUCUC	0.21
UAACAGGGGGCCACAGCAGAAGCGUUCACGCCGCAGCCCCUGACAGAUUCUGGUGAACCUGCGAAUUCUGCUGUAUAUCUC	0.24

Variant	self-cleavage
UAACAGGGGGCCACAGCAGAAGCGUUCACGCCGCAGCCCCUGUCAGAUUCUGGCGAAUCCGCGAAUUCUGCUGUAUAUCUC	0.26
UAACAGGGGGCCACAGCAGAAGCGUUCACGCCGCAGCCCCUGCCAGAUUCUGGUGAAUCUGCGAAUUCUGCUGAAUAUCUC	0.63
UAACAGGGGGCCACAGCAGAAGCGUUCACGCCGCAGCCCCUGCCAGAUUCUGGUGAAUCUGCGAAUUCUGCUAUAUAUCUC	1.13
UAACAGGGGGCCACAGCAGAAGCGUUCACGUAGCAGCCCCUGUCAGUCUCUGGUGAAGCUGCGAAUUCUGCUGUAUAUCUC	0.06
UAACAGGGGGCCACAGCAGAAGCGUUCACGCCGCAGCCCCUGUCAGAUUCUGGUGAAUCUGCGAAUCCUGCUGCUUAUCUC	0.14
UAACAGGGGGCCACAGCAGAAGCGUUCACGUGGCAGCCCCUGUCAGAUUCAGGUUAACCUGCGGAUUCUGCUGUAUAUCUC	0.08
UAACAGGGGGCCACAGCAGAAGCGUUCACGUAGCAGCCCCUGUCAGAAUCUGGUGAAUCUGCGAAUUCAGCUGUAUAUCUC	0.17
UAACAGGGGGCCACAGCAGAAGCGUUCACGUUGCGGCCCCUGUCAGAUUCUGGUGAGUCUGCGAAUUCUGCGGCAUAUCCC	0.03
UAACAGGGGGCCACAGCAGAAGCGUUCACGUUGCUGCCCCUGCCAGAUUCUGGUGAAUCUGCGAAUUCUGCUGUAUAUCUC	0.18
UAACAGGGGGCCACAGCAGAAGCGUUCACGCCGCAGCCCCUGUCAGAUCCUGGUGAAUCUGCGAGUUCUGCAGUAUGUCUC	0.07
UAACAGGGGGCCACAGCAGAAGCGUUCACGCCGCAGCCCCUGUCAGAUUCUGGUGAAUCUGCGAAACCUGCUGUAUAUCUC	0.11
UAACAGGGGGCCACAGCAGAAGCGUUCACGCCGCAGCCCCUGUCAGACUAUGGUGAAUCUGCGAGUUCUGCAGUAUAACUC	0
UAACAGGGGGCCACAGCAGAAGCGUUCACGUUGCUGCCCCUGUCAGGUUCUGGUGAAUCUGCGAACUCUGCUGUAUUUCUC	0.06
UAACAGGGGGCCACAGCAGAAGCGUUCACGCCGCAGCCCCUGUCAGAUUCUGGUGAAUCAGCGAAUUCUGCUGUAUAUUUC	0.53
UAACAGGGGGCCACAGCAGAAGCGUUCACGUAGCAGCCCCUGCCAGAUUCUGGUGAAUCUGCGAAUUCUGCGGUAUAUCUC	0.07
UAACAGGGGGCCACAGCAGAAGCGUUCACGUAGCAGCCCCUGUCAGGUUCUAGUGAAUCUGCGAAUUCUGCUGUAUAUCUC	0.11
UAACAGGGGGCCACAGCAGAAGCGUUCACGUGGCAGCCCCUGUCAGUUUCUGGUGAAUCUGCGAAUUCUGCCGUAUAUCUC	0.08
